# ± gives the standard deviation of the averaged measurements. This is one part of the list.
# Tested on: PfAP2-G AP2 domain (GST-tagged)
# Assay: gcPBM binding intensity (ln(normalized median fluorescence intensity)); higher = stronger DNA binding
# How it was run: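 GST-tagged P. falciparum DNA-binding domains produced in E. coli were incubated for 1 h on an Agilent 4 × 180k array of primer-extended double-stranded 36-bp intergenic genomic probes with negative controls. Binding intensity is the highest Masliner-normalised natural-log median intensity across replicate spots of either probe orientation, with bound protein detected by Alexa488 anti-GST antibody at 488 nm.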
row,Sequence,gcPBM binding intensity (ln)
1,ACAGATGATCAAAATTGTACAGAGTTATATTATATT [XGTACX_site4642],10.7 ± 0.44
2,TTATTTAAAAATAGCACACATTATATATATATATAT [CACACA_site5556],9.99 ± 0.2
3,ATATCATATATAAGTCGTACGATGAATAGAATTTTT [XGTACX_site7586],10.8 ± 0.38
4,CACCCATACAGACATACACACACATATATATTAATA [CACACA_site8077],10.3 ± 0.29
5,GATAAACCATATATAACACACATATGAATATTGCAA [CACACA_site6735],9.945 ± 0.092
6,ATTATATAATTTAATCGTACACAAATATTTGTTAGT [XGTACX_site5913],11.3 ± 0.8
7,TATATATATATAACAACACACACAGATCATAAAACT [CACACA_site8670],10.3 ± 0.27
8,TATTTTTTTTCGTAATGTACATAAAAAATGCAAAAA [XGTACX_site8491],11.3 ± 1
9,CAAAATATTTTTATAACACACATATATAGAATGTGC [CACACA_site1145],9.94 ± 0.014
10,CCATAATTATATGCCAGTACATATTTGTAACAAAAA [XGTACX_site851],10.9 ± 0.6
11,TTTATTTTTCATTGGGGTACACAAGTTTATTTTATT [XGTACX_site4263],11.7 ± 0.96
12,TAAGTAATAGTTTGTGCACACTCAAGTATATCATAT [CACACA_site4035],10.5 ± 0.29
13,TATTATTCCATGTGAAGTACAGAAATATAAATAAAT [XGTACX_site5106],11.3 ± 0.78
14,CTTTTAAAAAAATTCATGCACACGAAATAAAAAGCA [CACACA_site929],10.2 ± 0.19
15,TATCATCTTAATATCGTGCACATTTATAGAACGAAA [GTGCAC_site9992],10.2 ± 0.3
16,CTATTTTAATATTTTACACACCATGTAAAATATATA [CACACA_site5732],10.1 ± 0.15
17,TTTTACTATACTTATGCACACAAGATAAATACATAT [CACACA_site5619],10.2 ± 0.15
18,ATACCTCAAATTGATACACACAAAAAAAGTAAATTA [CACACA_site3134],10.2 ± 0.25
19,TATTAAAAGGTGAGTACACACATATATGTGTATATA [CACACA_site7070],11.4 ± 0.83
20,ATATATATATATATATGTACACAGGACAATAATCCT [XGTACX_site6383],11.2 ± 0.66
21,ATTTGGCAGAAACACACACACACACCCACCCACATA [CACACA_site589],10.5 ± 0.33
22,ATCATGAAATATATTTGTACACATAATAATATAATA [XGTACX_site8798],11.4 ± 0.89

row,Sequence,gcPBM binding intensity (ln)
1,TTTTTTTTTATAAATACACACGTACGGGTGCATAAC [CACACA_site8444],11.1 ± 0.81
2,TTATAGAAACATTGGTGTACGATATTTACTTCTTTC [XGTACX_site7314],11.2 ± 0.79
3,ACTAATTACTATAAAACACACATATATTTATTTATA [CACACA_site7263],10.01 ± 0.092
4,CACATGTATTTATAGGTGCGTAAAAACACTTTATAT [GTGCAC_site9501],10.5 ± 0.2
5,AAAGAAAATTCAATAGTGCATAAAAATATATATGTT [GTGCAC_site9680],9.86
6,GGAATAGTCGGGTGCATACACACCTTAAATATAATA [CACACA_site1081],10.3 ± 0.45
7,AATCATATTAGTATGGTGCAATATATATATAAATAT [GTGCAC_site9800],9.975 ± 0.049
8,AAACATAAATTTTATTGTACATTATATAGAATTTTC [XGTACX_site576],10.9 ± 0.5
9,TTTTCATTTTTTCGTTGTACATAAATAATATATATT [XGTACX_site856],11.2 ± 0.61
10,AATACATACATACATACACACATATATATATATTAT [CACACA_site3575],10.2 ± 0.12
11,TTTTTTAAAAGATAATATTTTATTAATGTATTCTCA [GTGCAC_negctrl_site598],9.54 ± 0.014
12,TAAAAAAATTCATGCACACGAAATAAAAAGCACCTT [CACACA_site4667],10.2 ± 0.14
13,TTTTACTATACTTATGCACACAAGATATATACATAT [CACACA_site2968],10.28 ± 0.049
14,TATTTATTGTGACACTTATATTATTTTATGATTAAA [CACACA_negctrl_site525],10.2 ± 0.3
15,TTTTCATTTGTGACAGTGCAAAATGTTATATTAAAA [GTGCAC_site9647],10.2 ± 0.28
16,TATAAAATGATGATATGTACTTATGTAGTTTTTTTA [XGTACX_site8711],11 ± 0.64
17,AATATATGGTTTCATGATATTAAATTCAAAATAATG [CACACA_negctrl_site318],9.95 ± 0.071
18,AATAATACATCCTTAGTGCAGAAATAAAAATTAAGC [GTGCAC_site9955],10.2 ± 0.26
19,TGTATACATTCTGAATGTACGGAACACCTCATAACT [XGTACX_site7240],10.8 ± 0.52
20,TTTGTAATAAATAAGAGTACAAGTATGGTTCCACTA [XGTACX_site2579],11.4 ± 1
21,ATTGGACTATAAATAGGTACACATATATATATATAT [XGTACX_site7562],11.5 ± 0.73
22,TCATATATTCAAAAATTTAAAGTTAATAAAACTTGA [CACACA_negctrl_site1546],9.46 ± 0.014

row,Sequence,gcPBM binding intensity (ln)
1,AAAAAAAAAAAAAACACACACATATAAATATAAATA [CACACA_site6972],9.98 ± 0.22
2,ATTATTTGAAACTATTGTACATTTAAAAACATTTTT [XGTACX_site4896],10.9 ± 0.42
3,TGGAACCTTTAAAATACACACCCAAATCCTTTGAAA [CACACA_site7671],10.14 ± 0.064
4,CATATATATTTTATTTGTACGTATAAAAAAACAAAA [XGTACX_site4253],11.5 ± 1.1
5,TAAATACTTGTATATAGTACAAGTTGTTTTTTTTAA [XGTACX_site5643],10.7 ± 0.42
6,AATGTGTTTTTTTTTTTTTTTTTTTTCAATCTCTAT [CACACA_negctrl_site794],9.685 ± 0.092
7,GAAAAAAGAAAAAAAAGTACACACATGTATATTAAT [XGTACX_site5265],11.5 ± 0.91
8,AATGTACACCCACCCACACACAAACAAATATATATA [CACACA_site5521],11.4 ± 0.92
9,TTTTTGTTTGAACACTGTACGTATAAATATAAAAGT [XGTACX_site6476],11.7 ± 0.84
10,TATATATAAAAACACACACACACACCCTATAATTAT [CACACA_site4063],10.3 ± 0.26
11,TTGTGTTATCACACGAAGGGGATAAGACATAAATGT [TGCATGCA_negctrl_site368],10 ± 0.13
12,TTTCAAATTTAATACACACACAAGTATATATTTATC [CACACA_site3947],10.1 ± 0.23
13,TAAGACAATAAATGCTGTACAATTGAATATCTTGGA [XGTACX_site636],10.9 ± 0.25
14,TTATAAAAATTTAGTTGTACATGTCAAATTATCAAT [XGTACX_site7229],11.1 ± 0.77
15,TTTTCGTAACTGATTCAACACACAAAAGGGGGAAAA [CACACA_site8517],10.8 ± 0.61
16,AATATATAGCTAAAAACACACAAATATATACACATA [CACACA_site9203],10.1 ± 0.25
17,TATTTTATTATTATTATTAGTATGATTTCTTTATAG [CACACA_negctrl_site550],9.675 ± 0.021
18,GGATAGGCATAACATAGTACGTACAAATATATATAT [XGTACX_site454],11.6 ± 0.91
19,TATTTTATTATTATTATTTCTTTATAGTGTATTCTA [CACACA_negctrl_site517],9.785 ± 0.092
20,TTTTTTGTACCAAAAAAAAAAAAAAGAAAAAAAAAC [CACACA_negctrl_site1416],10.8 ± 0.92
21,TTAACAAATAAACACACACACACACCCAAAAAAAAA [CACACA_site8068],10.4 ± 0.32
22,ATAAAAAAAAAAACAGTAAAATTATAATTATAATTA [TGCATGCA_negctrl_site356],9.635 ± 0.049

row,Sequence,gcPBM binding intensity (ln)
1,AATGTAAAATCTTCATATACATTTAAGTCTGTATTT [TGCATGCA_negctrl_site183],9.53 ± 0.23
2,ACAAAAATTAAATAAAGTACATTTTTAAAATACGTA [XGTACX_site3880],11.2 ± 0.64
3,TAATGATAAATACATACACACAAAAAATGATATATA [CACACA_site7258],9.91
4,TATATCCCTTAGAATACACACCCATATGAGTGTGAA [CACACA_site8965],9.96 ± 0.23
5,AAAAGCACAAAAAATACACACACAAAAAATAAAAAA [CACACA_site8545],10 ± 0.19
6,CATATTATATTCTGCTTACACACATATATATATATA [CACACA_site3059],10.2 ± 0.23
7,TTTTTTTGTTATATCCTGCACTTCTTAACTATATTA [GTGCAC_site9807],10.22 ± 0.092
8,AATAATAAGAATAACGCATGCACATATAATATAGAA [TGCATGCA_site3],9.96 ± 0.17
9,AATATGTAGTAATCAAGTACTAATGTCTTAATTCGG [XGTACX_site308],10.6 ± 0.4
10,GTTTTTTATATAAGGTGGTCAACATTGTAATGTTAA [XGTACX_site3204],11.3 ± 0.81
11,AGCTGAAAAAAAAGCTTGCACACGTATTTGCTTTAT [CACACA_site1512],10.4 ± 0.27
12,AAATTACACATCCATACACACATATTTTTTTTAATT [CACACA_site5242],10.1 ± 0.15
13,GTATATATGTATATGTGTACACATATTCTTAACTCA [XGTACX_site309],11.6 ± 0.89
14,ATATAAATTGGCAATAGTACATAAAGGCATAGAAAG [XGTACX_site2674],11 ± 0.53
15,TATAGATACATATACACACACACACCGACATATATA [CACACA_site9138],10.1 ± 0.17
16,TATATGGAAAATTAAAGTACTAAAGAATAAATAGAA [XGTACX_site8796],11 ± 0.64
17,TATAAAATAAATTGTGCACACATATTTATAAATATG [CACACA_site2330],10.6 ± 0.27
18,GAGAAACTTGTTTAAACATGCACAAAAAAAAAAAAA [TGCATGCA_site340],9.96 ± 0.36
19,AATAATAGAAGCACCCACCCACCACCACCCACACAT [CACACA_negctrl_site1033],10.9 ± 0.33
20,ACGATGAATATGTAAAGTACGCAAATGTAACAATAT [XGTACX_site728],11.4 ± 0.78
21,CATATATATTGATATGCACACCTATGTATTGATGTA [CACACA_site8269],10.1 ± 0.14
22,AGCATTTTTCATTTTGCACACATGTTTTATGGGTAT [CACACA_site5839],10.11 ± 0.078
